Assay results as given in publication PMC4336329 (PLoS ONE, 2015).
The campaign covered roughly 310,000 compounds. About 2,200 (0.71%) showed an effect of 50% or more. Effects have a minus sign here. This is one part of the list.

Biological target: human ether-à-go-go-related gene (hERG) potassium channel (human, UniProt Q12809)
Experiment: primary screen, population patch clamp on CHO cells stably expressing hERG

Chain of human ether-à-go-go-related gene (hERG) potassium channel (Q12809 whole entry, looked up): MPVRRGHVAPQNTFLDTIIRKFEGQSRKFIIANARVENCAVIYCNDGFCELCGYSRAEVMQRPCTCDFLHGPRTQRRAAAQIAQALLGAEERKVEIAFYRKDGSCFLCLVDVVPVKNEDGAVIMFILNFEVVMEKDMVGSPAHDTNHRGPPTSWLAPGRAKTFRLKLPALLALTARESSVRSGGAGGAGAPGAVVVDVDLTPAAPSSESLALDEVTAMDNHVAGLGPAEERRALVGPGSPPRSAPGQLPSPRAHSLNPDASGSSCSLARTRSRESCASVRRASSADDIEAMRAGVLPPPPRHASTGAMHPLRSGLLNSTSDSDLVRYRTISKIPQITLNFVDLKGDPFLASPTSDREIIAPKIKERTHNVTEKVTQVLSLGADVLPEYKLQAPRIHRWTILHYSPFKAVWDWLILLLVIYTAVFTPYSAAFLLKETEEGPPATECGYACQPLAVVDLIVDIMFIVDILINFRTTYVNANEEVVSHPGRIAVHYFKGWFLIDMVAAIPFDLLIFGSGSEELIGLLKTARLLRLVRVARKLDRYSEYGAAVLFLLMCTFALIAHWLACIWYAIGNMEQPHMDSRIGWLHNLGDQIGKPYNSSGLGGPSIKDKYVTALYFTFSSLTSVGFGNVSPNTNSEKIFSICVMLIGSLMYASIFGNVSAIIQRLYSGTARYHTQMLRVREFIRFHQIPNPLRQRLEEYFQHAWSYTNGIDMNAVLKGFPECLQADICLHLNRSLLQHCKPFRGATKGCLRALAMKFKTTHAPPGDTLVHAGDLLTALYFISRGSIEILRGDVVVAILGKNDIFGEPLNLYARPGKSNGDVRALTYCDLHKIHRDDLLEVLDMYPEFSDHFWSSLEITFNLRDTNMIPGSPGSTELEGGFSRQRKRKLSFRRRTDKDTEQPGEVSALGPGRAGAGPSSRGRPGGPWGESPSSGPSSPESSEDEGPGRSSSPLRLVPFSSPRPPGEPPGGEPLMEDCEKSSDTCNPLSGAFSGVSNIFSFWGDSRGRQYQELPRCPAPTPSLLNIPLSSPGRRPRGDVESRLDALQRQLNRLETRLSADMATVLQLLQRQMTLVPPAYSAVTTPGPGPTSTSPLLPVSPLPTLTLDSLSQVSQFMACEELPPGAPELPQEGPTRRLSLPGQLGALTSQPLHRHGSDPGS

Compound	hERG current change (%, negative = inhibition) at 1uM
CC(C)(CO)CN1CCC(n2nccc2NC(=O)C2CCCC2)CC1	10.2%
O=C1OCc2ccc(NC(=O)C3CC3)cc21	5.11%
CSc1nc2ccc(NS(=O)(=O)c3ccc([N+](=O)[O-])cc3)cc2s1	12.6%
COC(=O)c1cc(S(=O)(=O)NC2CCCCC2)cn1C	14.5%
Cc1cccc(NC2=C(Cl)C(=O)OC2OC(=O)c2ccco2)c1 (stereo not shown)	14.7%
Cc1cc(F)ccc1NCC(=O)Nc1ccccc1Br	16.4%
COc1cccc(C2N(c3cccc(Cl)c3)C(=O)C3CCCN32)c1 (stereo not shown)	4.76%
Cc1cccc(N(CC(=O)NC2CCCC2)C(=O)CS(=O)CC(=O)Nc2ccc3c(c2)OCO3)c1 (stereo not shown)	-0.439%
COc1ccccc1C(=O)Nc1ccnn1C1CCN(Cc2cnn(C)c2C)CC1	-28.8%
COc1cccc(NC(=O)c2nc(S(C)(=O)=O)ncc2Cl)c1	14.4%
COc1cccc(CC2(CO)CCN(C(=O)NC3CCCCC3)CC2)c1	7.84%
COC(=O)C1=C(c2ccc3ccccc3c2)C[C@@H]2CC[C@H]1N2C(=O)NCCCOC(C)C	7.39%
COc1cc(C(=O)NC2CCCCCCC2)cc(OC)c1OC	6.38%
CC(C)(C)S(=O)(=O)c1ccc(S(=O)(=O)C(C)(C)C)s1	14.1%
Cc1nn(C)c(N)c1[N+](=O)[O-]	7.72%
CCN(CC(=O)Nc1c(F)cccc1F)C(=O)CCNC(=O)c1ccccc1OC	-5.73%
CSCC[C@H](NC(=O)Nc1cccc(Br)c1)C(=O)O	0.179%
CCN(CC)c1ncnc2ccc(Br)cc12	12.5%
O=C(CNC(=O)c1cccc(F)c1)OCCOc1cccc(Cl)c1	8.24%
O=C(Nc1ccc(O)cc1)/C(=C/c1ccco1)NC(=O)c1ccccc1	14.9%

Compound	hERG current change (%, negative = inhibition) at 1uM
COc1ccc(CC(=O)NCc2ccc3c(c2)OCO3)cc1	7.15%
CCc1ccc(Nc2ccc(C(=O)O)cc2[N+](=O)[O-])cc1	10.1%
O=C(N1CCC(n2nc(-c3ccccc3)oc2=O)CC1)C1(c2ccccc2)CC1	7.44%
O=c1[nH]c(/C=C\c2cccc(F)c2)nc(O)c1[N+](=O)[O-]	16%
COCC(=O)Nc1nc2ccc(S(C)(=O)=O)cc2s1	8.71%
CCOC(=O)c1cc(-c2ccco2)nn1-c1ccc(C)cc1	9.57%
Cn1nnc(-c2ccc(OCc3ccccc3F)cc2)n1	4.1%
Cn1c(=O)c2c(n(Cc3ccccc3)c1=O)NC(=O)C2CC(=O)NCc1cccc(Cl)c1 (stereo not shown)	9.58%
Cn1cc(CN2CCN(CCO)CC2)c(-c2ccc(Oc3ccccc3)cc2)n1	8.73%
O=C(O)C=C1CCN(c2ncc(C(F)(F)F)cc2Cl)CC1	15.2%
CCOC(=O)C1CCCNC1=O (stereo not shown)	11.4%
OC(CNCCc1ccccc1)c1ccccc1 (stereo not shown)	15.9%
COc1ccc(/C=N/N2CCN(C)CC2)cc1O	8.41%
Cc1nn(Cc2ccc(C(=O)n3cccn3)o2)c(C)c1Br	1.86%
O=C(c1cc(Cl)ccc1[N+](=O)[O-])n1cnc2ccccc21	3.35%
O=C(c1cccc(C(F)(F)F)c1)N1CCOc2ccccc21	4.27%
O=C(Nc1cccc([N+](=O)[O-])c1)c1ccc(CSc2ccccc2)cc1	2.11%
O=C(c1ccc2c(=O)n(-c3ccccc3)c(=S)[nH]c2c1)N1CCCCC1	10.5%
COc1ccccc1OCCNc1cc(N2CCOCC2)ccc1[N+](=O)[O-]	2.03%
CCOC(=O)c1c(NC(=O)Nc2cccc(Cl)c2)sc(C)c1C	-10.6%

Compound	hERG current change (%, negative = inhibition) at 1uM
CCc1ccccc1NC(=O)CCN1C(=O)C2C3CCC(C3)C2C1=O (stereo not shown)	9.67%
Oc1c(Cl)cccc1C=Nc1cc(C(F)(F)F)ccc1N1CCCC1	-11.4%
COC(=O)c1sccc1NC(=O)CN(C)NS(=O)(=O)c1ccc([N+](=O)[O-])cc1	13.2%
O=C(NC(=S)NCc1nc2ccccc2[nH]1)c1ccccc1F	-4.6%
N#Cc1c(N)oc(-c2ccccc2)c1-c1ccccc1	3.55%
COc1cccc2[nH]c3c(N4CCCC(C)C4)ncnc3c12 (stereo not shown)	9.4%
O=[N+]([O-])c1ccc(S(=O)(=O)N2CCC3(CC2)OCCN3S(=O)(=O)c2cccs2)cc1	-23%
COc1ccc(CCNC(=O)CSc2nnc(CNC(=O)c3ccco3)o2)cc1OC	0.602%
COc1ccc(C(=O)N(Cc2ccc(N(C)C)cc2)C2CCS(=O)(=O)C2)cc1 (stereo not shown)	11.5%
O=C(O)C12CC3CC(C1)CC(n1ncc(N4CCN(c5ccccc5)CC4)c(Cl)c1=O)(C3)C2	6.71%
CCCOc1ccc2c3c(c(=O)oc2c1OCCC)CCC3	13.2%
Cc1ncc([N+](=O)[O-])n1CC(=O)Nc1ccc(F)cc1	7.42%
NC(=O)c1ccccc1N(Cc1ccccc1)S(=O)(=O)c1ccccc1	13.6%
COc1ccc(CN2C(=O)C(Cc3ccccc3)Nc3ncnc(N4CCOCC4)c32)cc1.O=C(O)C(F)(F)F (stereo not shown)	7.13%
Cc1cccc(NC(=O)CN(C)S(=O)(=O)c2ccccc2)n1	2.63%
CCN1CCN(C(=O)c2cc(COc3ccc4ncccc4c3)on2)CC1	4.87%
CCOC(=O)CN1C(=O)C(CC)Oc2ccc(Cl)cc21 (stereo not shown)	-1.65%
Cc1ccc(N=Nc2ccc(O)c(P(=O)(c3ccccc3)c3ccccc3)c2)cc1	-13.8%
